Results reported in PubChem BioAssay AID1814 (Broad Institute, 2009).
The whole screen tested about 300,000 compounds, of which about 22,000 (7.3%) were called active. This list was built around the results that the source calls inconclusive (neither active nor inactive); the mix of calls is not that of the screen. Cut-off read from the data, not from the text of the source: active = activity score below about -60%; inconclusive = mostly about -28% to -61%; inactive = positive scores.

test: Activators via SNCA 5'UTR binding, MLPCN (AID 1814); conditions: alpha-synuclein 5'UTR reporter, activators screen; hits give low values; tested at 7.5 µM

Structure (SMILES)	activity score
CCOc1ccc(NC(=S)Nc2ccc(C)c([N+](=O)[O-])c2)cc1	inconclusive: -55.8%
COc1ccc(OC)c(-c2cc(C(=O)Nc3c(C)nn(Cc4ccc(Cl)cc4)c3C)no2)c1	inactive: 58.3%
Cn1c2ccc(Cl)cc2c2nc3ccccc3nc21	inconclusive: -59.2%
Cc1nc(NC(=O)c2ccccc2)sc1-c1csc(NCc2ccco2)n1	inconclusive: -39.4%
O=C(Nc1ccc(NC(=O)c2cccs2)cc1)c1cccs1	active: -141%
CCOC(=O)c1cnc(Nc2nc3ccccc3o2)nc1C	inactive: 85.9%
Oc1ccc(-c2nc3ccccc3s2)cc1	active: -68.3%
NS(=O)(=O)c1cc(C(=O)OCC(=O)c2ccc3c(c2)OCCO3)ccc1Cl	inconclusive: -48.7%
O=C(/C=C/c1ccccc1[N+](=O)[O-])c1ccc(F)cc1	inconclusive: -58.5%
COc1ccccc1N(Cc1ccccc1)S(=O)(=O)c1cccc(C(=O)Nc2ccc(C(C)=O)cc2)c1	active: -87.6%
O=c1cc2oc3cc(O)c(O)cc3c(-c3ccccc3[N+](=O)[O-])c-2cc1O	inactive: 71.2%
COc1cc(C(=O)Nc2ccc(N(C)C)cc2)cc(OC)c1OC	active: -98.9%
CN1CCN(c2ccc(NC(=O)c3ccc4c(c3)[nH]c(=O)n4Cc3ccc(F)cc3)cc2)CC1	inconclusive: -46.9%
O=C1C(C=NCc2cccnc2)=C(O)c2ccccc21	active: -186%
COc1ccc(CCN2C(=O)c3cccc4c(C(=O)N5CCCCC5)ccc(c34)C2=O)cc1OC	inconclusive: -56.9%
Cc1cccc(/C(N)=N/OC(=O)C23CC4CC(CC(C4)C2)C3)c1	active: -114%
COc1ccc(C2C(C(=O)Nc3cc(OC)c(OC)c(OC)c3)c3ccccc3C(=O)N2C)cc1 (stereo unspecified)	inactive: 97.9%
CCOc1ccc(C(c2c(NC(=O)c3ccccc3)sc(C)c2C)N2CCN(CCO)CC2)cc1 (stereo unspecified)	inconclusive: -41.9%
Cc1ccsc1/C=N/Nc1ccc(C(=O)O)cc1	inactive: 63.7%
O=C(N/N=C/c1cc([N+](=O)[O-])ccc1O)c1cccc2cc[nH]c12	inactive: 68%
O=C(Nc1cccc(NC(=O)c2ccco2)c1)c1ccc2c(c1)OCO2	inconclusive: -53.6%
O=C(NC1=NCCS1)c1ccc(N2CCCC2=O)cc1	inconclusive: -53.8%
COc1cc(CNCc2ccccn2)ccc1OCc1ccccc1Cl	inconclusive: -42.8%

Structure (SMILES)	activity score
COc1cc(C2CC(c3cccs3)=NN2C(=O)CCl)ccc1OC(F)F (stereo unspecified)	inactive: 107%
COc1ccc(C(=O)Nc2n[nH]c(-c3ccncc3)n2)cc1	inconclusive: -44.9%
O=C(Nc1nc2c(s1)CCCC2)c1cc(-c2ccc3c(c2)OCO3)nc2ccccc12	inconclusive: -39%
O=C(Cn1cnc2ccccc2c1=O)c1ccc2ccccc2c1	active: -140%
COc1cc2c(cc1NC(=O)c1cccc([N+](=O)[O-])c1)oc1ccccc12	inactive: 80.9%
CCCc1ccc(-c2cc(C(=O)N3CCN(c4ccccn4)CC3)c3ccccc3n2)cc1	inconclusive: -55.1%
O=C(CSc1nnc(-c2ccccc2O)o1)N1CCOCC1	active: -69.4%
Cc1nc2cc(N3CCCCC3)c(NC(=O)c3ccncc3)cc2c(=O)n1Cc1ccc(Cl)cc1	inactive: 61.8%
Cc1ccc(C(=O)c2coc3c2C(=O)C(=O)c2ccccc2-3)cc1	active: -90.1%
c1ccc(-c2ncc3c(ccc4ccccc43)n2)cc1	inactive: 68.1%
CN(C)/C=C/C(=O)c1ccc(Oc2ccccc2)cc1	active: -136%
C/C(=N\Nc1ccc(Cl)c(Cl)c1)c1ccc(-n2ccnc2)cc1	inconclusive: -51.8%
COc1ccccc1-n1c(-c2cn(C)nc2C)n[nH]c1=S	inconclusive: -46.3%
CC(C)(C)c1cc(CCC(=O)NNC(=S)NC(=O)c2ccccc2)cc(C(C)(C)C)c1O	inactive: 65.8%
CC(=O)COc1ccc2c(C)c(-c3ccccc3)c(=O)oc2c1	inconclusive: -57.2%
Cc1ccc(/C=N/N2C(=O)c3ccccc3NC2c2ccc(C)cc2)cc1 (stereo unspecified)	active: -83.7%
CC(C)COc1ccc(C(=O)Nc2ccc([N+](=O)[O-])cc2)cc1	inconclusive: -59%
COc1ccc(/C=N/Nc2cc(C)nc3ccc(Br)cc23)cc1	inactive: 99.9%
COc1ccc(C(=O)CC(=O)C(=O)Nc2cc(Cl)c(OC)cc2OC)cc1	inconclusive: -52.1%
COc1cccc(C(=O)Oc2c(Br)cc(Br)cc2/C=N/NC(=O)c2cc(C)[nH]n2)c1	inactive: 64.3%
CCCNC(=O)C(=O)N/N=C/c1ccc(OCc2ccccc2)cc1	inconclusive: -52.9%
CCN1CCN(c2cc(C)c3cc(NC(=O)CCC(=O)N4CCN(c5ccccc5OC)CC4)ccc3n2)CC1	active: -62.4%
CN1CCN(C(=S)c2ccc(-c3cccc([N+](=O)[O-])c3)o2)CC1	active: -171%

Structure (SMILES)	activity score
Cc1ccc(C(=O)OCC(=O)Nc2nc(-c3ccccc3)cs2)cc1NC(=O)c1ccco1	inconclusive: -60.6%
CC(C)(C)c1cc(NC(=O)c2ccco2)n(-c2ccccc2)n1	inconclusive: -48.1%
CC1CC(C)CN(C(=O)CSCC(=O)Nc2nc(-c3cccs3)cs2)C1 (stereo unspecified)	inconclusive: -54.9%
O=[N+]([O-])c1ccccc1OCc1nc(-c2cccs2)no1	active: -114%
COc1ccc(-c2cc(C(=O)NCc3cccs3)no2)cc1	active: -170%
O=C(/C=C/Nc1ccccc1)c1ccc(Cl)cc1Cl	active: -122%
O=C1/C(=N\S(=O)(=O)c2cccs2)C([n+]2ccc(CCCc3ccccc3)cc2)=C([O-])c2ccccc21	inactive: 91.1%
O=C(COC(=O)c1cccnc1Cl)c1ccc(F)cc1	inconclusive: -41.6%
O=C(Cn1ncc(Cl)c(Cl)c1=O)N1CCc2ccccc21	inactive: 135%
COc1ccc(C(=O)/C=C/C(=O)N(CC(=O)NCCC(C)C)Cc2cccs2)c(O)c1	inactive: 61.3%
O=C(/C=C/c1cccs1)NC1CCCC1	inconclusive: -57.6%
CC(C)OC(=O)CC(=O)CSc1nc2c(cc1C#N)CCCCC2	inconclusive: -46.7%
CN(C)Cc1c(O)ccc2cc(-c3nc4ccccc4n3C)c(=O)oc12	active: -70.4%
CCOc1ccc(-c2nc(-c3cccnc3)no2)cc1OCC	inconclusive: -57.6%
COc1ccc(-c2cc(C)no2)cc1S(=O)(=O)Nc1ccccc1	inconclusive: -47.3%
CCCC1=Nc2cc(C(=O)NCc3ccco3)ccc2Sc2ccccc21	inactive: 87.6%
O=[N+]([O-])c1ccc(NNC(=S)Nc2ccccc2)cc1	active: -122%
C/C(=N\NC(=O)c1nn(C)c(C)c1Br)c1ccc(NC(=O)c2ccoc2C)cc1	active: -115%
CC(=O)C1=C(O)C(=O)N(c2ccc(Br)cn2)C1c1ccccc1F (stereo unspecified)	inconclusive: -51.8%
O=C1Nc2cc(Cl)c(Cl)cc2N(O)N1c1cccc(Cl)c1	inconclusive: -59.1%
CCOc1ccc(/C=N/N2C(C)CCCC2C)cc1 (stereo unspecified)	active: -77.4%
Nc1nnc(COc2ccc(Br)cc2Br)s1	active: -97.9%
CC(=O)c1ccc(NC(=S)N2CCC(Cc3ccccc3)CC2)cc1	inconclusive: -56.8%

Structure (SMILES)	activity score
C=CCn1cccc(/C=C/C(=O)c2ccc(C(C)(C)C)cc2)c1=S	active: -74.4%
O=C(Nc1nnc(CCc2ccccc2)s1)c1ccco1	active: -87.2%
COc1ccc(-c2cc(C(=O)NN)[nH]n2)cc1	inconclusive: -58.5%
COc1ccc(C(=O)NNC(=O)c2cccc(F)c2)cc1	active: -81.9%
Cc1cc(C(=O)N/N=C/c2cccc([N+](=O)[O-])c2)c(C)n1-c1ccccc1	active: -142%
C=CCOc1ccc(/C=N\NC(N)=S)cc1	inconclusive: -58.7%
NC(=O)COc1ccc(-c2noc(COc3ccccc3[N+](=O)[O-])n2)cc1	active: -83.8%
COC(=O)CCC(=O)NC(=S)Nc1sc(C)c(C)c1C(N)=O	inactive: 89.5%
CC1=CC(C/C(C)=C/COc2ccc3ccc(=O)oc3c2)OC1=O (stereo unspecified)	inconclusive: -57.7%
Cc1ccc(C(C)C)c(OCc2ccc(C(=O)N/N=C/c3ccc(O)cc3O)cc2)c1	inactive: 95.8%
Cc1ccccc1OCC(=O)Nc1ccc2oc(=O)ccc2c1	inconclusive: -55.2%
CCCCn1c(SCC(=O)N2c3ccccc3CCc3ccccc32)nc2c1c(=O)n(C)c(=O)n2C	inactive: 73.7%
O=C(Nc1ccc(N2CCCCC2)cc1)c1ccccn1	inactive: 114%
CN=C1SC(CC(=O)Nc2ccc(C(C)=O)cc2)C(=O)N1C (stereo unspecified)	inconclusive: -47.2%
CCCCC(=O)NC1(C(F)(F)F)C(=O)N(CC(C)C)C2=C1C(=O)CC(C)(C)C2 (stereo unspecified)	inconclusive: -50.7%
CCOc1ccc(NC(=O)Nc2cc(C)ccc2OC)cc1	active: -78.4%
CCC(=O)c1ccc(N2CCCC2)c(F)c1	inconclusive: -59.3%
Brc1ccc(N/N=C(/N=Nc2nn[nH]n2)c2ccccc2)cc1	inactive: 97.5%
CC(=O)NS(=O)(=O)c1cccnc1Nc1cccc(Cl)c1C	inconclusive: -32.5%
CC(=O)Nc1ccc(S(=O)(=O)Nc2nccc(/C=C/c3ccccc3F)n2)cc1	inconclusive: -49.9%
COC(=O)c1ccc(NC(=O)C23CC4CC(C2)CC(n2cnc(Cl)n2)(C4)C3)cc1	inconclusive: -56.2%
Cc1ccc(OCC(=O)N/N=C/c2cn(Cc3ccccc3)c3ccccc23)cc1	inactive: 59.5%
